Test results reported in the RNAGym collection of RNA variant scans (doi:10.1073/pnas.2313332121).
This sample is rich in variants without activity.

B1: TPR 5TU (parent)
chain: GGAUCUUCUCGAUCUAACAAAAAAGACAAAUCUGCCACAAAGCUUGAGAGCAUCUUCGGAUGCAGAGGCGGCAGCCUUCGGUGGCGCGAUAGCGCCAACGUUCUCAACUAUGACACGCAAAACGCGUGCUCCGUUGAAUGGAGUUUAUCAUG

Variants of: B1
Experiment: polymerase ribozyme fitness, log enrichment relative to wild type (log ratio); higher = more active; in vitro selection for triplet polymerase activity
Summary of the method: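 Mutant libraries for each subunit of a heterodimeric triplet polymerase ribozyme were made by PCR and then transcribed. Each library underwent one round of in vitro selection in triplicate: annealing with a biotinylated primer, the partner subunit and triplets, frozen incubation at −7 °C, gel excision of extended constructs, streptavidin-bead capture and RT-PCR. Input and output libraries were Illumina-sequenced, and only genotypes with ≥10 input reads and ≥1 read per output were kept. Fitness is the logarithm, base 2, of genotype enrichment over wild-type enrichment, computed from inverse-variance-weighted replicate averages.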

Polymerase ribozyme fitness (log ratio), -2.16:
GGAUCUUCUCGAUGUAACAAAAAAGACAAAUCUGCCACAAAGCUUGAGAGCAUCUUCGGAUGCAGAGGCGGCAGCCUUCGGUGACGCGAUAGCGCCAACGUUCUCAACUAUGACACGCAAAACGCGUGCUCCGUUGAAUGGAGUUUAUCAUG [C14G G84A]

Polymerase ribozyme fitness (log ratio), -3.82:
GGAUCUUCUCGAUGUAACAAAAAAGACAAAUCUGCCACAAAGCUUGAGAGCAUCUUCGAAUGCAGAGGCGGCAGCCUUCGGUGGCGUGAUAGCGCCAACGUUCUCAACUAUGACACGCAAAACGCGUGCUCCGUUGAAUGGAGUUUAUCAUG [C14G G59A C87U]

Polymerase ribozyme fitness (log ratio), ≤ -4.2:
GGAUCUUCUCGAUGUAACAAAAAAGACAAAUCUGCCACAAAGCUUGAGACUAUCUUCGGAUGCAGAGGCGGCAGCCUUUGGUGGAGCGAUAGCGCCAACGUUCUCAACUAUGACACGCAAAACGAGUGCUCCGUUGAAUGGAGUUUAUCAUG [C14G G50C C51U C79U C85A C125A]
GGAUCUUCUCGAUGUAACAAAAAAGACAAAUCUGCCACAAAGCUUGAGAGCAUCUUCCGAUGCAGAGGCGGCAGGCUUCGGUGGCGUGAUAGCGCCAACGUUCUCAACUAUGACACGCAAAACGCGUGCUCCGUUGAAUGGAGUUUAUCAUG [C14G G58C C75G C87U]
GGAUCUUCUCGAUGUAACAAAAAAGACAAAUCUGCCACAAAGCUUGAGAGCAUCUUCCGAUGCAGAGGCGGCAGCCUUCGCUGGCGCGAUAGGGCCAACGUUCUCAUCUAUGACACGCAAAACGCGUGCUCCGUUGAAUGGAGUUUAUCAUG [C14G G58C G81C C93G A107U]
GGAUCUUCUCGAUGUAACAAAAAAGACAAAUCUGCCACAAAGCUUGAGAGCAUCUUCCGAUGCAGAGGCGGCAGCCUUCGGUGGCGCGAUAUCGCCAACGUUCUCAACUAUGUCACGCAAAACGCGUGCUCUGUUGAAUGGAGUUUAUCAUG [C14G G58C G92U A113U C132U]
GGAUCUUCUCGAUGUAACAAAAAAGACAAAUCUGCCACAAAGCUUGAGAGCAUCUUCUGAUGCAGAGGCGGCAGCCUUCGGUGGCGCGAUUGCGCCAACGUUCUCAACUAUGACACGCAAAACGCGUGCUCCGUUGAAUGGAGUUUAUCAUG [C14G G58U A91U]
GGAUCUUCUCGAUGUAACAAAAAAGACAAAUCUGCCACAAAGCUUGAGAGCAUCUUCGAAUGCAGAGGCGGCUGCCUUCGGUGGCGGGAUAGCGCCAACGUUCUCAACUAUGACACGCAAAACGCGUGCUCCGUUGAAUGGAGUUUAUCAUG [C14G G59A A73U C87G]
GGAUCUUCUCGAUGUAACAAAAAAGACAAAUCUGCCACAAAGCUUGAGAGCAUCUUCGCAUGCAGAGGAGGCAGCCUUCGGUGGCGCGAUAGCGCCAACGUUCUCAACUAUGACACGCAAAACGCGUGCUCCGUUGAAUGGGGUUUAUCAUG [C14G G59C C69A A142G]
GGAUCUUCUCGAUGUAACAAAAAAGACAAAUCUGCCACAAAGCUUGAGAGCAUCUUCGGAUACAGAGGCGGCAGCCUUCGAUGGCGCGAUGGCGUCAACGUUCUCAACGAUGACACGCAAAACGCGUGCUCCAUUGAAUGGAGUUGAUCAUG [C14G G62A G81A A91G C95U U109G G133A U146G]
GGAUCUUCUCGAUGUAACAAAAAAGACAAAUCUGCCACAAAGCUUGAGAGCAUCUUCGGAUGCAUAUGCGGCAGCCUUCGGUGGCGCGAUAGCGCCAACGUUCUCAACUAUGACACGCAAAACGCGUGCUCCAUAGAAUGGAGUUUAUCAUG [C14G G65U G67U G133A U135A]
GGAUCUUCUCGAUGUAACAAAAAAGACAAAUCUGCCACAAAGCUUGAGAGCAUCUUCGGAUGCAGAGACGGCAGCCUUAGGUGGCGCGAUAGUGCCAACGUUCUCAACUAUGACACGCAAAACGCGUGCUCCGUUAAAUGGAGUUUAUCAUG [C14G G68A C79A C93U G136A]
GGAUCUUCUCGAUGUAACAAAAAAGACAAAUCUGCCACAAAGCUUGAGAGCAUCUUCGGAUGCAGAGGCGGCACCCUUCGGUGGCGAGAUAGCGCCAACGUUCUCAACUAUGAUACGCAUAACGGGGGCUCCGUUGAAUGGAGUUUAUCAUG [C14G G74C C87A C114U A120U C125G U127G]
GGAUCUUCUCGAUGUAACAAAAAAGACAAAUCUGCCACAAAGCUUGAGAGCAUCUUCGGAUGCAGAGGCGGCAGCCUUCGAUGGCGCGAUAGAGCCAACGUUCUCCACUAUGACAAGCAAAACGCGUGCUCCGUUGAAUGGAGUUUAUCAUG [C14G G81A C93A A106C C116A]
GGAUCUUCUCGAUGUAACAAAAAAGACAAAUCUGCCACAAAGCUUGAGAGCAUCUUCGGAUGCAGAGGCGGCAGCCUUCGGUAGCGCGAUAGCGCCAACGUUCUCAACUAUGACACGCAAAACGCGUGCUCCGUUGAAUCGAGUUUAUCAUG [C14G G83A G140C]
GGAUCUUCUCGAUGUAACAAAAAAGACAAAUCUGCCACAAAGCUUGAGAGCAUCUUCGGAUGCAGAGGCGGCAGCCUUCGGUGACGCGAUGGCGCCAACGUUCUCAACUAUGACACGCAAAACGCGGGCUCCGUUGAAUGGAGUUUAUCAUG [C14G G84A A91G U127G]
GGAUCUUCUCGAUGUAACAAAAAAGACAAAUCUGCCACAAAGCUUGAGAGCAUCUUCGGAUGCAGAGGCGGCAGCCUUCGGUGCCGCGAUCGCGCCAACGUUCUCAACUAUGACACGCAAAACGCGUGCUCCGUUGAAUGGAGUUUAUCAUG [C14G G84C A91C]
GGAUCUUCUCGAUGUAACAAAAAAGACAAAUCUGCCACAAAGCUUGAGAGCAUCUUCGGAUGCAGAGGCGGCAGCCUUCGGUGGCCCGAUAGCGCCAACGUUCUCAACUAUGACACGCAAAACGCGUGCUCCGUUGAAUGGAGUUUAUCAUG [C14G G86C]

Polymerase ribozyme fitness (log ratio), -2.24:
GGAUCUUCUCGAUGUAACAAAAAAGACAAAUCUGCCACAAAGCUUGAGAGCAUCUUCAGAUGCAGAGGCGGCAGCCUUCGGUGGCGCGAUAGCGCCAACGUUCUCAACUAUGACACGCAAAACGCGUGCUCCGUUGAAUGGAGUUUAUCAUG [C14G G58A]
